Measurements published in the supplement of paper PMC3334620.
Over roughly 33,000 sequences, “E-score (-0.5 to 0.5)” has its median near -0.021; the highest 2% begin near 0.32. The list shows a part of the results.

Biological target: T1, Zap1 (UniProt P47043)
T1 sequence: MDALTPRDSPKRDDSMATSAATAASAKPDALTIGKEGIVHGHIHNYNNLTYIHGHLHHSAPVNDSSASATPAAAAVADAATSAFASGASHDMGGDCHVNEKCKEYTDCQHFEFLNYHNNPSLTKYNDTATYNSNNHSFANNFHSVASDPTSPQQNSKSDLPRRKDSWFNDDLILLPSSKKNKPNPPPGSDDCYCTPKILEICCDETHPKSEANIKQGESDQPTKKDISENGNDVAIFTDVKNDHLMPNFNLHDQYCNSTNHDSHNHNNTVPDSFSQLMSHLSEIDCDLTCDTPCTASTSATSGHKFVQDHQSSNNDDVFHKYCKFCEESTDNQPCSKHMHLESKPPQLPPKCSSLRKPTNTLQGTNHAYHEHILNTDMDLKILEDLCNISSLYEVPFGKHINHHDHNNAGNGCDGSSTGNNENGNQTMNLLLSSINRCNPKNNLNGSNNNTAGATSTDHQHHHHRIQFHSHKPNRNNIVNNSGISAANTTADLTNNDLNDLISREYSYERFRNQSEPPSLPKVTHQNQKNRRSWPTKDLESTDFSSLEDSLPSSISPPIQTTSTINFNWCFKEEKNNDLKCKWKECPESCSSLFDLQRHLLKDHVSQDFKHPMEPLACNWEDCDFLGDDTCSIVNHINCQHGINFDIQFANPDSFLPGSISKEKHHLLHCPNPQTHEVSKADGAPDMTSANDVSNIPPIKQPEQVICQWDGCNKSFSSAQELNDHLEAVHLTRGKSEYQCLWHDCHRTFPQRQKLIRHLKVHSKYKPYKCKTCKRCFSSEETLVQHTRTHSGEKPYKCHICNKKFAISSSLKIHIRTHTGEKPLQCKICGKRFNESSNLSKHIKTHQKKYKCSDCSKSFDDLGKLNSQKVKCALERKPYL
Assay: PBM E-score (8-mer binding enrichment) (E-score (-0.5 to 0.5)); higher = stronger / more preferred TF binding; most listed sequences are background and not binding sites
Details: protein concentration: 200 nM; construct: GST-full length
How it was run: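 PURExpress in vitro transcription/translation supplied GST-tagged yeast transcription factors, either full-length or DNA-binding domain. Applied at about 100-200 nM to universal all-10-mer Agilent arrays double-stranded by primer extension, the bound protein was detected with fluorescent anti-GST. E-scores, modified Wilcoxon-Mann-Whitney statistics, were given by the Universal PBM Analysis Suite to ungapped eight-base words pooled with their reverse complements after masliner normalisation.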

Row | Sequence | PBM E-score
1 | GAAAAACA | 0.123
2 | GGAACTAC | 0.0621
3 | CGGGAAGC | -0.159
4 | ACCTCAAA | 0.326
5 | CCCTGGCA | -0.0254
6 | TAGGAGGA | -0.0353
7 | AAACCGGA | 0.00487
8 | AACCTTTA | 0.398
9 | CCGTCCTC | -0.191
10 | CTTACGGC | -0.0265
11 | CTGGCGCA | -0.328
12 | GCTTTGCA | -0.0691
13 | AACACCCC | 0.0776
14 | GTGCCCAC | -0.0966
15 | CCAAGTAA | 0.271
16 | CTTTTAGA | 0.00325
17 | AGAGTTAT | 0.189
18 | GACGAGTA | -0.0693
19 | GACACAGC | -0.0871
20 | CCCCCGCC | -0.316
21 | CGATGTCA | -0.222
22 | ACGTCTCT | -0.0811

Row | Sequence | PBM E-score
23 | AACGCTAG | -0.162
24 | CCATCATC | -0.0678
25 | AGAACGAG | 0.0577
26 | TCCAGGCA | -0.0239
27 | GCTCACAA | 0.0225
28 | ATATATAT | 0.145
29 | ATATCAAC | 0.147
30 | ACCGCGTG | 0.0398
31 | CTAGGCTC | -0.203
32 | CGTCCAAC | 0.0234
33 | GTCCCGAA | -0.13
34 | AAGACACA | 0.0314
35 | CAGCATGA | -0.0653
36 | AAATATCT | -0.0382
37 | ACCGGGTA | 0.295
38 | AAAGTCGA | -0.0678
39 | GAGCACGC | -0.139
40 | AATCATAC | 0.0791
41 | AACACGCT | -0.185
42 | ACCGTCTA | -0.05
43 | CTGTGTCC | 0.0345
44 | ACTCTAGC | -0.282

Row | Sequence | PBM E-score
45 | CTTTTCTC | 0.101
46 | AAGATCAG | -0.154
47 | ACTCGGTA | -0.0647
48 | TAGCCCTA | -0.0869
49 | CCTATTCG | -0.0135
50 | CTCTGATA | -0.0467
51 | CGCGCAGC | -0.3
52 | CAAGTCTA | -0.141
53 | TAGGGCGA | -0.136
54 | CCTGGTCC | -0.139
55 | TAATGAGA | 0.0845
56 | AATCTGAC | 0.028
57 | AGTGATTA | 0.11
58 | CCCTCCGA | -0.0396
59 | GGCTCTCA | -0.245
60 | CATACTTA | 0.012
61 | CGACTATC | 0.00971
62 | ATAGAAAT | 0.162
63 | ATCCCCAA | 0.0399
64 | GGGAGATA | -0.215
65 | AGAGAATC | -0.152
66 | CGAACACA | 0.085

Row | Sequence | PBM E-score
67 | CCGATCGC | 0.0373
68 | TCATCGAA | -0.0562
69 | AGTATGAT | 0.125
70 | CGCGGTTA | 0.452
71 | ACGTTTTG | 0.0918
72 | CCGGTGAG | -0.0983
73 | GTCTAAAA | -0.00945
74 | GGCGAGCA | -0.231
75 | GGATTGCA | -0.127
76 | AAAGGTGA | 0.25
77 | AGAAAAGG | 0.0723
78 | ATAAACGG | 0.118
79 | TACATACA | 0.00913
80 | GATGATAC | -0.0151
81 | GCTAATAA | -0.0122
82 | CAGGCAGG | -0.155
83 | GCCCGCGC | -0.0387
84 | AATCGTCA | 0.0319
85 | CACCCCTG | -0.0914
86 | ACCGTAGG | -0.0554
